# Publication PMC6919601, “Identification of Plasmodium dipeptidyl aminopeptidase allosteric inhibitors by high throughput screening” (PLoS ONE, 2019)
# Hit rate of the full screen: of about 110,000 compounds, about 230 (0.21%) showed an effect of 50% or more. This is one part of the list.
# Biological target: DPAP1 (Plasmodium falciparum, UniProt Q8IIJ9)
# Assay: primary screen, percent inhibition; read by cleavage of a fluorogenic dipeptide substrate; higher = more effect of the substance
# Parameters: species or system P. falciparum D10 trophozoite lysates; single well
# 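Further: 30 min substrate incubation versus DMSO and 10 µM JCP410 controls.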
# Chain of DPAP1 (Q8IIJ9 whole entry, looked up): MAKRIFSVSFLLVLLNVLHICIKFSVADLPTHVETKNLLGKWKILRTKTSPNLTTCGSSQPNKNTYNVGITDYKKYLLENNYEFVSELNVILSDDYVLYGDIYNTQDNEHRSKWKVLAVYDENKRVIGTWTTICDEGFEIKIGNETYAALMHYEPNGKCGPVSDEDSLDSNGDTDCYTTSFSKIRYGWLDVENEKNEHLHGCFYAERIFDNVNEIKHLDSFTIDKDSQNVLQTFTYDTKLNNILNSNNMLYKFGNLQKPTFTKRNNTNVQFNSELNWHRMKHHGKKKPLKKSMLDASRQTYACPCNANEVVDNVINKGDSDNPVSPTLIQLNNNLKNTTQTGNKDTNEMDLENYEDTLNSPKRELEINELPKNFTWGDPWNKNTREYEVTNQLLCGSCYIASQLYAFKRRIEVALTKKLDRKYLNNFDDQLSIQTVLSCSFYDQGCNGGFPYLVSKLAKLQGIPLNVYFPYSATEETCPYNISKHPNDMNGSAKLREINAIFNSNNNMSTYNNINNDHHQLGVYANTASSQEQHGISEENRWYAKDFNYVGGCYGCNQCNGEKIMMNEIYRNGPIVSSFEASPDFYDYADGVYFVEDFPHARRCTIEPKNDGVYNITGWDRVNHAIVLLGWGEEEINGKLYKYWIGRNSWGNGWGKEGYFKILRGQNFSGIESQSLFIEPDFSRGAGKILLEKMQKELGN
row,Compound,% Inhibition @ 10 uM [%]
1,O=C1N/C(=C/c2ccc(Sc3ccccc3)cc2)C(=O)N1Cc1ccccc1F,-1.81
2,CCOc1ccccc1N(CC(=O)Nc1ccc(Br)c(C)c1)S(C)(=O)=O,-11
3,O=C(NC1CCCC1)C1CC(c2ccc(F)cc2)=NO1 (stereo not drawn),5.92
4,CCOc1ccc(C(=O)N2CCN(c3ncccn3)CC2)cc1,1.28
5,CN1C(=O)CC(N2CCN(C(=O)CN3CCCC3)CC2)C1=O (stereo not drawn),5.58
6,CCCOc1ccc(C(=O)N/C(=C/c2ccc3c(c2)OCO3)C(=O)NCCCO)cc1,21.8
7,CCC(Oc1cccc(C)c1)c1nc2ccccc2[nH]1 (stereo not drawn),0.558
8,N=C1/C(=C/c2cccn2Cc2ccc(F)cc2)C(=O)N=C2SC=CN12,0.275
9,Cc1ccccc1C(=O)Nc1ccc(S(=O)(=O)N(C)Cc2ccccc2)cc1,8.37
10,CCc1ccc(-c2nc(CSCC(=O)NCCCOC)c(C)o2)cc1,-2.85
11,O=C(Cn1c(-c2cccs2)cc2ccccc21)N1CCC2(CC1)OCCO2,-0.911
12,Cc1cc(Cl)ccc1NC(=O)C(=O)NCc1ccccc1,-5.9
13,COc1ccc(OC)c(Nc2nc3cc(C)ccc3cc2C)c1,-1.56
14,CCCCOc1ccc(CN(C)c2ncnc(N)n2)cc1,1.24
15,CCN1CCN(C/C=C/c2ccc(N(C)C)cc2)CC1,-0.0494
16,Cc1ccccc1C1CC(=O)NC(SCC(N)=O)=C1C#N (stereo not drawn),4.11
17,Cc1nc2ccn(Cc3cccnc3)c(=O)c2cc1C(=O)NCCc1c[nH]c2ccccc12,-0.12
18,CCOc1cc(C2C3=C(CCCC3=O)N(CC(=O)O)C3=C2C(=O)CCC3)cc(Cl)c1OCC,-3.65
19,CC1=C(C(=O)Nc2ccccc2)C(c2ccc(C)o2)n2c(s/c(=C/c3ccoc3)c2=O)=N1 (stereo not drawn),-0.28
20,Cc1cc(Oc2ccc(-c3ccccc3)cc2)nc(-c2ccccc2O)n1,-1.07
21,Cc1cc(C(=O)NCCc2ccccc2)c2c(C)nn(-c3ccccc3)c2n1,-6.46
22,c1ccc2c(c1)OCC(CSc1nnc3c(n1)[nH]c1ccccc13)O2 (stereo not drawn),6.51
23,COc1cccc(N2C(=O)c3ccc(-c4nc5ccccc5o4)cc3C2=O)c1,4.49
24,O=C(Nc1ccc(Cl)c(Cl)c1)C1CC(=O)N(c2ccc(F)cc2)C1 (stereo not drawn),4.07
25,CC1(C)CC(=O)C(/C=N/c2cccnc2Cl)=C(O)C1,-2.83
26,CCCCN(C)CCCn1cnc2c3cc(Cl)ccc3nc-2c1O,-3.52

row,Compound,% Inhibition @ 10 uM [%]
1,CCn1cc(CCCC(=O)NCc2cccs2)c2ccccc21,4.51
2,Cn1c(S)nc2c1c(=O)n(Cc1ccccc1Cl)c(=O)n2C,6.12
3,Cn1cc(Br)c(C(=O)Nc2nc3ccccc3n2Cc2ccccc2)n1,2.21
4,CCCC(NC(N)=O)c1ccccc1 (stereo not drawn),-3.32
5,Cc1ccc(OCc2nc(C#N)c(NCc3ccccc3Cl)o2)cc1,-0.958
6,Fc1ccccc1Cc1nc(-c2ccc(C(F)(F)F)cc2)no1,6.31
7,Cc1ccc(S(=O)(=O)CC(=O)N2CCCCCC2)cc1,2.13
8,O=C(c1ccco1)N1CCN(C(=O)C2CCN(S(=O)(=O)c3cccc4nsnc34)CC2)CC1,3.53
9,CC1=NN(c2ccccc2)C(=O)/C1=C\c1ccccc1[N+](=O)[O-],0.247
10,Cc1oc2cc3c(C#N)c(C)oc3cc2c1C#N,-4.61
11,Cc1ccc(/C=C(\NC(=O)c2ccccc2)C(=O)NCCc2ccccc2F)o1,-0.968
12,CCc1ccc(NC2=NC(=O)C(CC(=O)Nc3ccccc3)S2)cc1 (stereo not drawn),21.5
13,CC(C)(CNC(=O)c1ccc2c(c1)OCO2)CNC(=O)c1ccc2c(c1)OCO2,0.317
14,O=C(Cn1nc(-c2ccccc2)c2ccccc2c1=O)NCCO,1.39
15,COc1ccc2cc(C(=O)O)n(Cc3ccccc3)c2c1,-1.75
16,Cc1oc2ncnc(N3CC(C)CC(C)C3)c2c1C(=O)O (stereo not drawn),-2.19
17,CC(C)(C)C(/C=C\c1ccc(Cl)cc1Cl)n1nnnc1C(c1ccccc1)N1CCOCC1 (stereo not drawn),-2.72
18,C=CCOC(=O)C1=C(C)NC(=O)NC1c1ccc(Cl)cc1 (stereo not drawn),3.61
19,CCCC1(NC(=O)c2ccccc2)CCCC1,-0.744
20,O=CNc1ncc(-c2nc3ccccc3[nH]2)s1,-0.597
21,O=C(Nc1cccc2cccnc12)c1ccccc1,-4.02
22,COc1ccc(NC(=O)c2c(-c3ccccc3Cl)noc2C)cc1,2.03
23,COc1cc2c(cc1OC)C(c1cccnc1)N(C(C)=O)CC2 (stereo not drawn),4.51
24,CCOc1cc(-c2nc(C)c(C(C)=O)n2O)ccc1OCC(=O)Nc1cccc(C)c1,-0.25
25,Cc1cc(/N=C/C2=C(O)c3sccc3N(Cc3ccc(F)cc3)S2(=O)=O)no1,2.44
26,Cc1ccc(NC2=NC(=O)C(CC(=O)Nc3c(C)cccc3C)S2)cc1 (stereo not drawn),-11.8

row,Compound,% Inhibition @ 10 uM [%]
1,Cc1ccc(C)c(NC(=O)c2ccc(Cl)cc2Cl)c1,0.827
2,Cc1ccc(CN2CCN(c3ccccc3)CC2)cc1,1.55
3,CC(C)C(=O)N1CCN(c2ccc(F)cc2)CC1,-1.54
4,CCOC(=O)c1cc2c(=O)n3ccccc3nc2n(CCCOC)/c1=N\C(C)=O,-2.04
5,CCOC(=O)c1c(C)n(Cc2ccccc2)c2ccc(OCC(O)CNCc3ccccc3)cc12 (stereo not drawn),-4.93
6,O=[N+]([O-])c1ccc(C2=NN=C(c3ccccc3)c3ccccc3N2)cc1,-0.034
7,Cc1cccn2c(=O)c3cc(C(=O)O)n(C)c3nc12,-4.72
8,COc1cc2c(cc1OC)C(=O)NCC(C)(C)O2,12.2
9,CN(C(=O)c1ccc(C(=O)c2ccccc2)cc1)c1ccccc1,-3.04
10,Cc1ccc(CNC(=O)CN2CCN(Cc3ccccc3C)C2=O)cc1,-0.256
11,Cc1oc2c(C)c3oc(=O)cc(C)c3cc2c1-c1ccccc1,-2.92
12,C=CCNc1nc(Cl)nc(NC2CCCCC2)n1,2.54
13,Brc1ccc(OCCCCN2CCCCC2)cc1,1.35
14,COc1ccccc1Nc1nc(-c2sc(NC(C)=O)nc2C)cs1,13
15,Cc1ccc(CNCCC2=CCCCC2)cc1,-5.01
16,CCc1ccc(OCC(=O)Nc2ccc(S(=O)(=O)N3CCc4ccccc43)cc2)cc1,3.53
17,Fc1ccc(N2CCN(Cc3ccc(F)cc3F)CC2)cc1,1.55
18,COc1ccc(CCNC(=O)Cn2nc(C)n3cccc3c2=O)cc1OC,-6.99
19,O=C1CC(N2CCN(Cc3ccccc3)CC2)C(=O)N1c1ccc(F)cc1 (stereo not drawn),1.02
20,Cn1c(C(=O)N2CCC(C(=O)NCCCc3ccccc3)CC2)cc2sccc21,0.137
21,CCC(C(=O)NCc1cccc(OC)c1OC)n1ncn2c(cc3occc32)c1=O (stereo not drawn),-3.79
22,Cc1cccc(Oc2nc3c(C)cccn3c(=O)c2/C=C(\C#N)C(=O)NCC2CCCO2)c1 (stereo not drawn),-9.06
23,CCN1CCN(CCCNC(=O)c2ccc3c(c2)c(C)c(C)n3Cc2ccc(Cl)cc2)CC1,5.72
24,COc1ccc(-n2c(SCc3ccccc3Cl)nc3nncc-3c2O)cc1,1.42
25,COc1cc(SC)ccc1C(=O)NCCOc1ccc(F)cc1,3.39
26,Cc1ccc(NC(=O)c2ccc(Cl)cc2Cl)nc1,2.01

row,Compound,% Inhibition @ 10 uM [%]
1,COc1ccc(CNc2nc3nc(-c4ccccc4)cc(O)n3n2)cc1OC,2.62
2,CCOc1cc(C2CC(=O)NC3=C2C(=O)CC(c2cccs2)C3)cc(Br)c1O (stereo not drawn),-1.62
3,Cc1nn2cc(-c3ccc(C)c(C)c3)nc2s1,4
4,Cc1ccc(NC(=O)C(C)Oc2ccccc2)c(C)c1 (stereo not drawn),-0.872
5,COc1ccc2cc(Br)ccc2c1CC(=O)Nc1cccnc1,-5.48
6,CCN1CCN(C(=O)c2cn(C3CCCCC3)c(=O)c3c2c2ccccc2n3C)CC1,0.163
7,c1ccc(C(OCCN2CCNCC2)c2ccccc2)cc1,1.4
8,Cc1ccccc1C(=O)NC1(C(F)(F)F)C(=O)Nc2c1c(=O)[nH]c(=O)n2CCc1ccccc1 (stereo not drawn),-2.98
9,O=C(CN(C1CCCCC1)S(=O)(=O)c1ccc(F)cc1)N1CCCCCC1,1.92
10,Nc1nnnn1/N=C\c1ccc(O)cc1,15.8
11,COCCCNC(=O)/C(=C\c1ccco1)NC(=O)c1ccc(C)cc1,-5.6
12,CN1CCN(C(=O)C(=O)c2c[nH]c3ccccc23)CC1,2.08
13,CC(=O)Nc1cccc(NC(=O)c2ccccc2Br)c1,-5.65
14,O=C(O)CNC(=O)/C(=C/c1ccco1)NC(=O)c1ccccc1,0.76
15,Cc1ccc(C(=O)NCc2ccco2)cc1C,18.5
16,CCCSC1=C(C#N)C(c2ccccc2)CC(=O)N1 (stereo not drawn),-1.32
17,COc1ccc2c(c1)c(C(=O)N1CCN(c3ccccc3)CC1)c(C)n2C,-1.11
18,COc1ccc(CCNC(=O)C23CCC(C)(C(=O)C2=O)C3(C)C)cc1OC (stereo not drawn),-2.84
19,CC(C)CS(=O)(=O)C1=NSC2=NC(=O)/C(=C\c3ccc4c(c3)OCO4)C(=N)N21,8.07
20,COc1ccc(C2C3=C(O)CC(C)(C)CC3=Nc3nc(O)nc(O)c32)cc1OC (stereo not drawn),-3.9
21,CC(C)CC(NC(=O)OCc1ccccc1)C(=O)NCC(=O)COc1ccccc1 (stereo not drawn),-0.778
22,Cc1nc2ccc(S(=O)(=O)NCC(=O)NCc3ccc4c(c3)OCO4)cc2s1,-4.24
23,CC1=C(CCN2CCC(C(N)=O)CC2)C(C)(C)CCC1,-1.41
24,CCCCNCc1c(C(=O)O)c(C)n(Cc2ccc(F)cc2)c1C,-3.67
